Several values for one entry are separate records, joined by “and”; a condition that tells them apart may be missing. Equal values may be shown once. Out of some 340,000 compounds screened, about 12,000 (3.5%) were called active. Inconclusive results, whose numbers are uncertain, are shown with a selection of clear calls. Calls come from the whole dose curve; as a rule, active = well fitted inhibition curve with a large enough effect; inconclusive = small, poorly fitted or top-dose-only effect, or another doubt; inactive = no such curve, though single readings can be large or run the other way. A potency beside an inconclusive call is a rough fit, not a confirmed value.
test: qHTS Assay for Inhibitors of Hepatitis C Virus (HCV); conditions: Huh7.5.1 HCVcc-Cre (HCVcc is cell-culture hepatitis C virus) infection, luciferase reporter, 44 h; series mostly up to 41.8 µM
Summary of the method: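 HCVcc-Cre virus at an moi near 0.5 was added right after compound to cells cultured 4 h from seeding (1,000 cells/well). Luciferase activity was determined 44 h later, 15 min after substrate addition at RT.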
Potency is the fitted concentration of half-maximal effect; tags give direction and shape of the fitted curve.

Row | SMILES | Potency
1 | CC1Sc2ccc(S(=O)(=O)N(C)Cc3ccccc3)cc2NC1=O (centres undefined) | inconclusive: 31.6 µM [inhibitor, single point]
2 | CC(OC(=O)Cc1c(F)cccc1Cl)C(=O)NC1(C#N)CCCCC1 (centres undefined) | inactive
3 | COCCNC(=O)c1nn2cccnc2c1Cl | inactive
4 | CCOc1ccc(C(C)=O)cc1COC(=O)CN1C(=O)NC2(CCCC2)C1=O | inconclusive: 17.8 µM [inhibitor, partial curve]
5 | Cn1c(SCC(=O)Nc2ccc(Cl)cc2)nnc1C1CC1 | inconclusive: 35.5 µM [inhibitor, single point]
6 | Cc1ccc([C@H]2C(C#N)=C(N)Oc3cc(C)oc(=O)c32)o1 | inactive
7 | CC(C)(C)CC(C)(C)c1ccc(OCCOCC[N+](C)(C)Cc2ccccc2)cc1 | inconclusive: 17.8 µM [inhibitor, single point]
8 | Cc1ccc(OCC(=O)Nc2nnc(C3CCCO3)s2)c(Br)c1 (centres undefined) | inconclusive: 7.08 µM [inhibitor, partial curve]
9 | CCn1nc(C)c(/C=N/NC(=O)Cc2ccc(Cl)cc2)c1C | inconclusive: 20 µM [inhibitor, partial curve, poor fit]
10 | COc1cc2c(c(OC)c1OC)C(=O)C(=Cc1ccccc1)O2 | inconclusive: 17.8 µM [inhibitor, partial curve]
11 | CCOC(=O)C(C(=O)OCC)C(C(=O)OCC)N1CCOCC1 (centres undefined) | inconclusive: 31.6 µM [inhibitor, single point]
12 | C=CCn1c(=O)c(CCC(=O)Nc2ccc(N3CCOCC3)cc2)nc2cc(C(F)(F)F)ccc21 | inconclusive: 12.6 µM [inhibitor, partial curve, poor fit]
13 | Cc1ccc(S(=O)(=O)c2cc3c(=O)n4ccccc4nc3n(CC3CCCO3)c2=N)cc1C (centres undefined) | inactive and inconclusive: 6.31 µM [inhibitor, full curve]
14 | COc1ccc(S(=O)(=O)Nc2ccc3c(c2)CCC3)cc1 | inconclusive: 35.5 µM [inhibitor, single point]
15 | CC1CCCN(S(=O)(=O)c2ccc(C(=O)Nc3sc4c(c3C(N)=O)CCN(C)C4)cc2)C1 (centres undefined) | inconclusive: 22.4 µM [inhibitor, single point]
16 | O=S(=O)(Nc1cccc(-c2ccc(N3CCCCCC3)nn2)c1)c1ccccc1Cl | active: 11.2 µM
17 | CCCc1cc(C(=O)O)c2ccccc2n1 | inactive
18 | CCc1ccccc1NC(=O)c1cccc(Oc2ccc([N+](=O)[O-])cc2Cl)c1 | inconclusive: 31.6 µM [inhibitor, single point]
19 | COc1cc(/C=N/NC(=O)CSc2ccccn2)ccc1OC(C)C | inactive
20 | Cc1cccc(NC(=O)c2ccc([N+](=O)[O-])s2)c1C | inconclusive: 31.6 µM [inhibitor, single point]
21 | CNc1ccc2nc3ccccc3[n+](C)c2c1 | active: 3.16 µM
22 | O=C(Cn1nc(C(=O)O)c2ccccc2c1=O)Nc1cccc(S(=O)(=O)N2CCCC2)c1 | inactive
23 | COc1ccccc1CCC(=O)OCC(=O)N1CCN(S(=O)(=O)c2ccc(C)cc2C)CC1 | inconclusive: 31.6 µM [inhibitor, single point]

Row | SMILES | Potency
24 | C[C@H](CO)N1C[C@H](C)[C@@H](CN(C)C(=O)Nc2ccc(C(F)(F)F)cc2)Oc2c(NC(=O)NC3CCCCC3)cccc2C1=O | inconclusive: 3.16 µM [inhibitor, partial curve]
25 | Cc1ccc(-n2c(C)cc(C(=O)CSc3nnc4ccccn34)c2C)cc1 | inconclusive: 31.6 µM [inhibitor, single point]
26 | COc1ccc(-c2cc(C(=O)OCc3ccccn3)c3ccccc3n2)cc1 | inconclusive: 31.6 µM [inhibitor, single point]
27 | Cc1cccc(C(=O)Nc2ccc(C(=O)N/N=C/c3ccc(C)o3)cc2)c1 | inconclusive: 31.6 µM [inhibitor, single point]
28 | CCOC(=O)Cc1nnc2c(Nc3ccccc3F)nc3nonc3n12 | inconclusive: 25.1 µM [inhibitor, single point]
29 | CCN(CC)S(=O)(=O)c1ccc(N2CCOCC2)c(NC(=O)COc2ccccc2C)c1 | inconclusive: 12.6 µM [inhibitor, partial curve]
30 | Cc1ccc(OCC(=O)Nc2oc(-c3ccccc3)c(-c3ccccc3)c2C#N)cc1 | inconclusive: 7.94 µM [inhibitor, partial curve]
31 | CN1C(=O)N(CC(=O)N2CCN(S(=O)(=O)c3ccc4c(c3)CCC4)CC2)C(=O)C12CCCCC2 | inactive
32 | CSc1nc(N2CCOCC2)c2c3c(sc2n1)CCCC3 | inconclusive: 6.31 µM [inhibitor, partial curve]
33 | CCC(C)(C)NC(=O)C1CCN(c2nc(OC)nc(OC)n2)CC1 | inactive
34 | CCOC(=O)Cc1nnc(NC(=O)c2ccccc2OCC)s1 | inactive and inconclusive: 11.2 µM [inhibitor, partial curve]
35 | COc1ccc(N(C)S(=O)(=O)c2cccc(C(=O)OCC(=O)c3c(N)n(C)c(=O)n(C)c3=O)c2)cc1 | inconclusive: 22.4 µM [inhibitor, single point]
36 | Cn1c(CC(=O)Nc2ccccc2F)nnc1SCC(=O)NC1=NCCS1 | inactive
37 | Cc1ccc2cc(C#N)c(NCCNC(=S)NCCCN(C)C)nc2c1C | inconclusive: 0.891 µM [inhibitor, full curve, poor fit]
38 | Cc1ccc(/C=N/N(Cc2ccccc2)c2ccccc2)o1 | inconclusive: 12.6 µM [inhibitor, partial curve]
39 | CCOc1ccc(NS(=O)(=O)c2cc(NC(=O)c3ccc(C)cc3)ccc2Cl)cc1 | active: 7.94 µM
40 | Cc1nnc(SCCN2C(=O)c3ccccc3C2=O)nc1C | inactive
41 | CCOc1ccc2c(c1)c1nc3ccccc3nc1n2C | inconclusive: 31.6 µM [inhibitor, single point]
42 | CN1CCN(Cc2cc(Cl)c3cccnc3c2OC(=O)c2cccs2)CC1 | inconclusive: 11.2 µM [inhibitor, partial curve]
43 | CC1Cc2ccccc2N1C(=O)c1ccc(N2CCCCC2)c([N+](=O)[O-])c1 (centres undefined) | inactive
44 | Cc1ccc(C2=Nc3ccccc3N=C(c3ccc([N+](=O)[O-])cc3)C2)c(O)c1 | inactive
45 | CCCCCCCCNS(=O)(=O)CCNCc1ccccc1 | inactive
46 | O=C(c1cc(S(=O)(=O)N2CCOCC2)ccc1F)N(Cc1nnc(-c2ccccc2Cl)o1)C1CC1 | inconclusive: 31.6 µM [inhibitor, single point]

Row | SMILES | Potency
47 | O=C(Cc1sc(Nc2ccccc2)nc1-c1ccccc1)NCc1ccccn1 | inconclusive: 14.1 µM [inhibitor, single point]
48 | Nc1cc(=O)[nH]n1C1CCN(c2ccccc2)CC1 | inactive
49 | COc1ccc(CNC(=O)C(=O)NCCC2CCCCN2S(=O)(=O)c2ccccc2)cc1 (centres undefined) | inconclusive: 31.6 µM [inhibitor, single point]
50 | CCOc1ccccc1C(=O)NC1CCN(CC(=O)Nc2cc(OC)ccc2OC)CC1 | active: 11.2 µM
51 | C/C(=C\C1CCCCC1)C(NC(=O)c1ccc(C(F)(F)F)cc1)c1ccc(-c2ccccc2)cc1 (centres undefined) | inconclusive: 0.562 µM [inhibitor, full curve]
52 | CCOC(=O)C1(Cc2cccc(Cl)c2)CCCN(C(=O)CCC(=O)N(C)C)C1 (centres undefined) | inactive
53 | O=C1C(Cl)=C(N2CCOCC2)C(=O)N1c1cccc(Cl)c1 | inactive
54 | CCOc1ccc(-c2csc(N)c2C(=O)OC)cc1 | inconclusive: 31.6 µM [inhibitor, single point]
55 | CC(=O)Nc1ccc(C2CC(c3ccc(Cl)cc3)=NN2c2ccccc2)cc1 (centres undefined) | inconclusive: 31.6 µM [inhibitor, single point]
56 | O=C(CCNS(=O)(=O)c1cccc2nsnc12)NCCC1=CCCCC1 | inconclusive: 25.1 µM [inhibitor, single point]
57 | CCC(=NC(C)c1ccccc1)c1c(O)n(C)c(=O)n(C)c1=O (centres undefined) | active: 5.62 µM
58 | COc1ccc(C(=O)Nc2ccccc2C(=O)Nc2cccc(C)n2)cc1 | inconclusive: 11.2 µM [inhibitor, single point]
59 | C=CCN1C=C/C(=C\C=C(C#N)C#N)c2ccccc21 | active: 10 µM
60 | Cc1ccc(S(=O)(=O)NCCN2CCN(S(=O)(=O)c3ccccc3Cl)CC2)cc1 | inactive
61 | CCc1ccc(S(=O)(=O)NCc2cn3cccc(C)c3n2)s1 | inconclusive: 31.6 µM [inhibitor, single point]
62 | CC(C)c1cc(C(=O)N2CCCC(N3CCN(c4ccc(F)cc4)CC3)C2)n(C)n1 (centres undefined) | inconclusive: 11.2 µM [inhibitor, partial curve]
63 | O=C(N/N=C/c1cnc(N2CCCCC2)s1)c1ccc(Cl)cc1 | inconclusive: 31.6 µM [inhibitor, single point]
64 | COc1ccc(/C=C(/C#N)c2cccnc2)cc1OC | inconclusive: 1 µM [inhibitor, partial curve]
65 | Cn1c(=O)n(Cc2ccco2)c(=N)c2c3c(sc21)CCC3 | inconclusive: 10 µM [inhibitor, partial curve]
66 | CC1(CCc2ccc3c(c2)OCO3)NC(=O)c2ccccc2N1 (centres undefined) | inactive
67 | Cc1nc(NCCC(C)C)c2nnn(Cc3ccccc3)c2n1 | inactive
68 | FC(F)(F)c1cnc(NNC(=S)Nc2ccccc2Cl)c(Cl)c1 | inconclusive: 10 µM [inhibitor, partial curve]
69 | O=C(Nc1ccc(-c2cn3c(n2)SCC3)cc1)c1ccc2ccccc2n1 | inconclusive: 31.6 µM [inhibitor, partial curve, poor fit]

— PubChem BioAssay AID651820 (National Center for Advancing Translational Sciences (NCATS), 2012)
